Measurements: publication PMC4242493
Some of the results follow. The list includes weakly bound sequences.

molecular target: MaxL homodimer (UniProt P61244); assay: universal protein-binding microarray (PBM); conditions: PBS-based mixture, 10 nM His-tagged protein dimer, 2% milk, 200 ng/uL BSA, 50 ng/uL salmon testes DNA, 0.02% TX-100; detection with Alexa 488 anti-His …; high values mean tight binding; most listed sequences are background and not binding sites; double strand, one strand shown
UniProt P61244, sequence (P61244 whole entry): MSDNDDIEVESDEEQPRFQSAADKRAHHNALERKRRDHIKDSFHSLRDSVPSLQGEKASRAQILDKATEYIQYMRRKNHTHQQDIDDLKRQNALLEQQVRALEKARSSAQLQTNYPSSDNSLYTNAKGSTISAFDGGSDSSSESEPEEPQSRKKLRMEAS

Sequence | binding signal (normalized occupancy)
CTAGCATA | 0.0766
CACACGAA | 0.0853
AGAAGAGG | 0.0712
CCGTTCCG | 0.0671
AGGGATCG | 0.0723
GGCATTTA | 0.0801
CCTGGGAG | 0.074
AGTGCGTA | 0.0743
TAGAGAAA | 0.0732
CACCATAA | 0.0805
CAAAGAGA | 0.0709
AGCCGTCC | 0.067
CCATCAGC | 0.0771
CTCGTTAC | 0.0757
GGTTTAAA | 0.0741
ACCGTACA | 0.0768
TTCCGCAA | 0.0715
CACCTAAA | 0.0692
AACGGAGA | 0.0747
CAGGTCTA | 0.0749
CAGTTGCG | 0.0733
AGAGGACA | 0.0734
CACATGAC | 0.129
CCGTTAAG | 0.0714
ACGAAAAG | 0.0718

Sequence | binding signal (normalized occupancy)
AAGGGTCG | 0.0738
CGCTGAGA | 0.0761
ATTCCAAC | 0.0749
TAACGGTA | 0.0757
AAGTTGCA | 0.0792
CGTAATTA | 0.0761
TGCTTGAA | 0.0759
GCGTTACC | 0.0704
ACAGGGAG | 0.0726
CTCCTGCA | 0.0753
CCTACACC | 0.0813
CCTGTTCC | 0.0756
AAAGAACT | 0.074
GGCATATA | 0.083
ATACTCCA | 0.0795
GCAGGCGC | 0.0701
AGTTATTA | 0.0813
CAATCTGA | 0.0715
CATTATTC | 0.0828
CTCATGAC | 0.0906
ATCTGTAG | 0.0767
ACGGGGTC | 0.0767
CACGACAA | 0.0838
AGTACAGC | 0.0795
GAAATGTA | 0.0821

Sequence | binding signal (normalized occupancy)
CCTGCAGC | 0.074
AGTGACCA | 0.0753
CTTGCACC | 0.07
ACTATAAT | 0.0832
CTGGAGTC | 0.0677
ACATAGAA | 0.0839
AATTTGAA | 0.0696
AACCAATT | 0.0737
CTTTGTAC | 0.0768
CGATAGAA | 0.0785
GCTCCATA | 0.0816
AAGTGATA | 0.0795
GGAGATAA | 0.0763
ATTTCTCA | 0.0749
CTATGACA | 0.0778
AGCTAATA | 0.071
ACGACTCT | 0.0746
AAACCACC | 0.0775
TCGTTCAA | 0.0769
AACAACGG | 0.0733
GTCACGAA | 0.0778
AGGTTAGA | 0.0719
GCAATCGA | 0.072
CCAGTGCA | 0.0738
GCCAGAAA | 0.0686

Sequence | binding signal (normalized occupancy)
AAGCAACG | 0.0753
ACTCTCTC | 0.0783
ATTGATCG | 0.0783
CGTATCGC | 0.0739
CGCCACGC | 0.0953
CACACAAA | 0.0793
CGTTATTA | 0.0757
AATCGGCA | 0.0719
CGTAAATC | 0.0744
AGCCTTGG | 0.0703
ACCGAGTA | 0.077
TCCATAGA | 0.0742
GTAGCAGA | 0.0734
CACACAGA | 0.075
CAGGGCAA | 0.0701
CGGGGTCA | 0.0776
ACGGTGAA | 0.0796
GATTCAAC | 0.0763
AAGCTTCT | 0.0702
TACTGCAA | 0.0788
CCTCAACC | 0.0752
CGTTGGCA | 0.0756
CCAACCAG | 0.0696
TCGCTTCA | 0.0721
GAGGTTAC | 0.0757

Sequence | binding signal (normalized occupancy)
AGACTGAC | 0.0694
CAGGCCGC | 0.0666
AGACTGGC | 0.0718
TAACGATA | 0.083
GAAGTCTA | 0.075
CAGAGTGC | 0.0724
GACGGGGC | 0.0753
CTTAGGGC | 0.0708
AGTGTGCG | 0.0802
CATTTTCG | 0.0762
CTGGAGCA | 0.0712
AACCACTG | 0.0734
ATGGGGCA | 0.0873
GTTGCACA | 0.0734
ACCTATTA | 0.0816
AGGGTCAT | 0.0797
ATTGCTGA | 0.0799
TAGTGAAA | 0.0775
AATAGACT | 0.0786
ATCGATAC | 0.0835
GAACATGA | 0.0904
ACTTGCAA | 0.0705
CGGTGCTC | 0.0727
CTAAGGTC | 0.0732
ACTTTACG | 0.072

Sequence | binding signal (normalized occupancy)
GCTGACCC | 0.0707
AGCAATCA | 0.0741
GAACTCGA | 0.0761
AGTTTTCA | 0.0725
ATCCCTTC | 0.0745
CGATGGCC | 0.0707
GCCACACA | 0.0771
CAGCTCAC | 0.0734
AAGCACTT | 0.0733
GCTCATAA | 0.0731
CTTGTCGA | 0.0718
AATACCAA | 0.0753
TAAACTAA | 0.0761
ATCGTATG | 0.0786
GTAATACA | 0.0763
CAGCAACA | 0.0758
AACGACCC | 0.074
ACTGAAGG | 0.0686
AGCGGACA | 0.0676
ACCACTCG | 0.0782
GACTAGTA | 0.079
TCCTCAGA | 0.0724
GGCGGTCA | 0.0776
GTATCTCA | 0.0813
AGGCTGTA | 0.076

Sequence | binding signal (normalized occupancy)
CACATATG | 0.095
ACCGTTGA | 0.0717
CGTGGGGA | 0.0853
GGATGGTA | 0.0803
ACATGGTG | 0.0914
GAAGAAGA | 0.0714
AAGAGATC | 0.0785
CCACCATA | 0.084
CACGCTGG | 0.113
ACCGGGGA | 0.0723
CCGACTAA | 0.0758
GTCCCTCA | 0.0754
AATGTTAA | 0.0817
AGGTTACG | 0.072
ACCAAGTA | 0.0719
CTCGGCTA | 0.0658
ATGAAAGA | 0.071
AGAGAACC | 0.0865
ACCAGTGA | 0.0765
CCCCCCAA | 0.0777
AGTTGATG | 0.0746
CCGTGATA | 0.0782
CTAAATTA | 0.072
AGAGGCCG | 0.0676
GTCACCAC | 0.0775

Sequence | binding signal (normalized occupancy)
ACGCCTGC | 0.0743
GAGCGACA | 0.0823
AAATATCC | 0.0699
ACACCAGG | 0.0735
CGCGAACC | 0.0677
CCTGATTA | 0.075
GCGATTGA | 0.0748
GCTTTGCA | 0.072
CACGTTAG | 0.105
CCTGGTAA | 0.073
ATTCGAAA | 0.0738
CCCCTAGA | 0.0806
ATCGCTAC | 0.0736
CCCTTGCA | 0.0735
CCTTTAAA | 0.0745
AATTCGCG | 0.0755
CCGTATAC | 0.0779
CCTTCGAG | 0.0696
ACGGCAAA | 0.0694
ACGAGACT | 0.077
AAGTATTA | 0.0765
GAACTGTA | 0.0745
ATGGTGTC | 0.081
AGCTTACT | 0.0712
CTATGTAC | 0.0847

Sequence | binding signal (normalized occupancy)
AAGCCGCC | 0.0707
CGCAGCAC | 0.0736
CTGGTGGC | 0.0753
CCAGTACA | 0.0847
GTAGCGGA | 0.0685
AGCCAGCA | 0.0736
ATGTATTA | 0.0821
TACCGATA | 0.0719
GGGTGTAC | 0.0782
ATCAAAAG | 0.075
CGCCTAGA | 0.0698
ACTTCACG | 0.0799
CCTCGTGC | 0.133
AATTCCAC | 0.0752
ACAAGTGC | 0.0781
AGTATCAC | 0.0846
GAACTGCA | 0.072
CCATTTAA | 0.0764
ATCTCTAG | 0.0794
AACGGTAC | 0.0737
AATGGAAC | 0.074
CATCAAAA | 0.0747
CCCATACC | 0.0872
CACCACTC | 0.0771
GGGGGCAC | 0.0775

Sequence | binding signal (normalized occupancy)
ATGGAGTA | 0.0779
CCAACGCC | 0.0721
CAGCTACG | 0.0718
AGTCCTGG | 0.0658
CCTTATAG | 0.0824
GAGGTCGA | 0.0722
ATCAGCGA | 0.0728
ACGTGAAA | 0.097
CGACCTAG | 0.0686
GAACTACC | 0.0767
GTGAATTA | 0.0765
ACAATAAA | 0.0758
ATGACAAC | 0.0781
ATTTCTCC | 0.0731
CGGTCCGC | 0.0666
CAAAGCGA | 0.066
ATGCTTGA | 0.0776
AACCACAG | 0.0711
ACAAGAAT | 0.0786
CCTTCGCG | 0.069
AGCAAGCC | 0.069
CGAATATC | 0.0786
ACCCCCAA | 0.0804
AAGAGACA | 0.0747
AGGATATG | 0.0799

Sequence | binding signal (normalized occupancy)
GTGAAGCA | 0.0832
GTCAACAC | 0.0809
AGGTACCA | 0.0719
ACTAGTGG | 0.0781
CCAGATCC | 0.0709
AACGCAAC | 0.0782
GAGCCTAA | 0.0763
CGCGGGGA | 0.077
CTAAATTC | 0.0714
CCCTTTCC | 0.0694
AGCTGAGG | 0.0672
CCTTTGTC | 0.0748
CTGTAAAA | 0.0786
ACCGCGGC | 0.0687
CTACGTGC | 0.0865
AGCTACAG | 0.0749
GCATGTCC | 0.0929
ATCTTTCC | 0.0761
AATATCCT | 0.0771
ACGAATGA | 0.077
CGCACGTA | 0.0881
CTACAAAA | 0.0721
GACCCAGA | 0.0721
CCCGAGGG | 0.0651
AGCTGGAT | 0.0711

Sequence | binding signal (normalized occupancy)
AAATCCTA | 0.078
AATCTTAG | 0.0698
CGTCCCTA | 0.0733
ATCTACCG | 0.0739
CTACATTA | 0.0762
CTGCTCGC | 0.0679
GCCACTCC | 0.0748
AGCGCGAC | 0.0688
CTGCAGAC | 0.0715
CAGAAAGG | 0.0726
CTTGAAGC | 0.0724
TACCGAGA | 0.0775
CTCGTAGC | 0.0707
ATCTCAGA | 0.0758
ACACTTAA | 0.0826
ACTACCAC | 0.0826
ATGCACAC | 0.0941
AACCCAAT | 0.075
GACCATTA | 0.0775
ATGCGGAC | 0.087
AGCTAATG | 0.0717
ATATCGGA | 0.0799
ACCCCCCC | 0.0963
AGTTCCAT | 0.082
GCACAGAC | 0.0712

Sequence | binding signal (normalized occupancy)
CATCGCTC | 0.0683
AGCAACCC | 0.0702
AAAGTGTG | 0.0847
AGCTTGCC | 0.0703
CCGACGAA | 0.0722
GCTACTTA | 0.0777
AGCGATAA | 0.0695
GGGCCAGA | 0.071
CCGGCTGC | 0.067
ATGACATG | 0.0993
ATACCATA | 0.0804
AGTTCGAC | 0.0718
GAGTCTCA | 0.0683
ATTGCGAG | 0.0753
GGGTACGA | 0.0719
GGGTTTGA | 0.0728
AGGGTGAA | 0.0714
AATACGCC | 0.0758
CTTTGAGC | 0.067
ACGCGTAT | 0.0868
GTGGTGTA | 0.0801
CGAATGAA | 0.0766
ATCCTGAA | 0.0784
ATTCTAGG | 0.0763
CTTTGAGA | 0.0714

Sequence | binding signal (normalized occupancy)
CACTATAA | 0.0847
GGCCACGA | 0.0815
GGATCGAC | 0.0761
ATGGTCGG | 0.0807
CTCTGAAC | 0.0745
ATGCCGCA | 0.0854
CCTCACAG | 0.0719
AGATTCGA | 0.0676
CGAGGCTC | 0.0735
AGCGCCAA | 0.0742
ATACACAT | 0.092
GACAGTCC | 0.0686
CACCCGTG | 0.0871
GCAGTTAC | 0.076
TAGAGTAA | 0.0718
CTCCAGGA | 0.0694
CAATAACG | 0.0718
GTGACCGA | 0.0795
CAGGTCAA | 0.0719
